Each structure is given as a SMILES string. In all, about 13,000 compounds were measured (“IFI”: median about 4, highest 2% from about 17 on). This is one part of the list.

The test can be described thus: GSK_TCMDC: Inhibition Frequency Index (IFI). The number of non-kinase HTS assays where a compound showed > 50 % inhibition, expressed as a percentage of the number of such assays in which the compound was tested (-0 is zero). Format: functional.
For the molecule `CCCCCC(C)NC[C@@H](O)[C@H](Cc1ccccc1)NC(=O)c1cc(NCC)cc(N2CCCCS2(=O)=O)c1` (stereo partly drawn), the IFI was found to be 3.4%.

Turning to `O=c1cc(NCCCNCc2cc(Cl)c(Cl)cc2Cl)[nH]c2ccccc12`, the IFI is 0.75%.

Consider `CC(C)(C)c1nn(-c2ccccc2)c2[nH]c(=O)c(CNCc3ccccc3)cc12`, for which the IFI was found to be 3.79%.

`Cc1ccccc1C(=O)NC(NC(=S)Nc1ccc([N+](=O)[O-])cc1)C(Cl)(Cl)Cl` (stereo not drawn) came in with an IFI of 11.6%.

Consider `COc1ccc2nccc([C@@H](O)CN3CCC(NCc4nc5cc(F)cc(F)c5[nH]4)CC3)c2c1`, for which the IFI stood at 3.65%.

In turn, `N#Cc1cc([N+](=O)[O-])ccc1-n1nc(C(N)=O)n(Cc2cccc(F)c2)c1=S` had an IFI of 2.74%.

In the case of `Cc1nc(Nc2ccc(F)cc2)nc(N2CCc3cc(O)ccc3C2C)c1C` (stereo not drawn), the IFI is 8.63%.

On to `CCOc1ccc(-c2nonc2NC(=O)c2cccc(Cl)c2)cc1OCC`, for which the IFI worked out at 1.56%.

Turning to `CC(=O)c1ccc(O)c(CC(O)CO)c1` (stereo not drawn), the IFI is -0%.

In turn, `N#Cc1ccc2c(c1)CCN(CCC1CCC(NC(=O)/C=C/c3c[nH]c4c(Br)cccc34)CC1)CC2` (stereo not drawn) showed an IFI of 2.27%.

Regarding `Cn1c(N)cc(-c2cccc(I)c2)c2c(=O)nc(N)nc1-2`, the IFI came to 4.24%.

As for `COc1ccc(CN2CCC(CNCC(c3ccccc3)c3ccccc3)CC2)cc1`, the IFI is 9.79%.

`COc1ccc(C(=O)NCc2ccc(N)nc2C)cc1Nc1ncc(-c2cccc(N(C)C)c2)cn1` yielded an IFI of 9.38%.

Regarding `O=C(NC(CCCN1CCC2(CC1)OCc1ccccc12)c1ccc(Cl)c(Cl)c1)c1cc(C(F)(F)F)cc(C(F)(F)F)c1` (stereo not drawn), the IFI amounted to 8.72%.

As to `Cc1cc(C(F)(F)F)cc(-n2ncc(-c3ccc(C(=O)NCCNCc4ccccc4)cc3)c2N)n1`, the IFI amounted to 15.4%.

`CC(C)c1cc2c(ccc3nc(N)nc(N)c32)[nH]1`: the IFI stood at 2.78%.

In the case of `O=S(=O)(Nc1cc2c(cc1OCCCN1CCCCC1)CCNCC2)c1ccc(-c2ccc(Cl)cc2)cc1`, the IFI is 11.9%.

`CN(C)c1ccc(-c2ccc(C(=O)NC3CCN(Cc4ccc(F)cc4)CC3)s2)cc1`: the IFI was 5.36%.

In turn, `O=C(NCCCCN1CCC(c2ccc3c(c2OCc2ccncc2)CCCC3)CC1)c1ccc(-c2ccc(C(F)(F)F)cc2)cc1` gave an IFI of 9.57%.

For `Nc1nc(N)c2c(ccc3nn(Cc4cccnc4)cc32)n1`, the IFI stood at 1.42%.

In turn, `Cc1ccc(Nc2nc3cc(N(C)c4ccnc(Nc5cccc(CCS(C)(=O)=O)c5)n4)ccc3n2C)cc1` came in with an IFI of 11.1%.

Molecule `COc1ccc2nccc([C@@H](O)CN3CCC(NCc4cc5oc(=O)n(C)c5cc4F)CC3)c2c1` returned an IFI of 0.74%.

Molecule `N#Cc1cccc(C(=O)N2CCOC(CCN3CCC(c4ccccc4)CC3)(c3ccc(Cl)c(Cl)c3)C2)c1` (stereo not drawn) returned an IFI of 6.16%.

For the molecule `COC(=O)Nc1ccc(-c2ccc(C(=O)NC3CCN(C[C@H](O)c4ccnc5ccc(OC)cc45)CC3)cc2)c(C)c1`, the IFI was found to be 2.94%.

For the molecule `CCc1c(CCNCCCCCCNCCc2ccc(OC)cc2)ccc(OC)c1OC`, the IFI turned out to be 3.73%.

Take `COc1ccc2nccc([C@@H](O)CN3CCC(NC(=O)C(c4cc5ccccc5o4)N4CCN(C(c5ccccc5)c5ccccc5)CC4)CC3)c2c1` (stereo partly drawn): the IFI came to 2.76%.

`CCCCN(CCCC)/C(=N/C(=N)NCc1ccc(Cl)c(Cl)c1)NCCCCCCN/C(=N\C(=N)NCc1ccc(Cl)c(Cl)c1)N(CCCC)CCCC` came in with an IFI of 22.9%.

As for `Cc1cccc2nc(-c3cccc(-c4ccc(C(=O)NCCc5ccc(O)c(=O)[nH]5)cc4)c3)[nH]c12`, the IFI stood at 4.81%.

With `CCc1ccnc2c(N3CCCC3=O)cc(C(=O)N[C@@H](Cc3ccccc3)[C@H](O)CNC3CCOCC3)cc12`, the IFI came to 0%.

Regarding `O=C(Nc1cccc(Cl)c1)N(CCCn1ccnc1)Cc1csc(-c2ccc(CNCc3ccccc3)cc2)n1`, the IFI came to 3.42%.

`COc1ccc(CNCc2ccc(-c3cccc(-c4nc5cccc(C)c5[nH]4)c3)cc2)cc1` came in with an IFI of 15.4%.

`CC(C)(C)c1cc(Cn2ccnc2)cc(C(C)(C)C)c1O` had an IFI of 1.42%.

For the molecule `CCCCN(CCCC)C(=O)CC(O)c1cc2c(Cl)cc(Cl)cc2c2cc(C(F)(F)F)ccc12` (stereo not drawn), the IFI stood at 0.72%.

The molecule `Cc1nc2nc(N)nc(N)c2c(C)c1Cc1ccccc1` came in with an IFI of 2.96%.

`CCOc1cc2ncnc(Nc3cc(Cl)c(Cl)c(Cl)c3)c2cc1OCC` showed an IFI of 0.74%.

For the molecule `O=C(Nc1ccc(-c2nc3ccccc3[nH]2)cc1)C1CCCN(C2CCC2)C1` (stereo not drawn), the IFI is -0%.

`COc1ccc(NCc2cccc(-c3cccc(CNCCc4ccccc4)c3)c2)cc1` showed an IFI of 2.92%.

Molecule `C=CCn1cc(C2CCN(CCCCNC(=O)c3sc(-c4ccc(C(F)(F)F)cc4)nc3CO)CC2)c2cc(OC)ccc21` displayed an IFI of 10.8%.

With `Cc1cc(O)c(-c2ccc(Sc3ccc(Cl)cc3)cc2)c(C)n1`, the IFI was 0.78%.

In turn, `CCN(CC)CCN(Cc1ccc(-c2ccc(C#N)cc2)cc1)C(=O)Cn1c(CCc2cccc(F)c2F)nc(=O)c2ccccc21` displayed an IFI of 2.84%.

As for `C=CCn1c(=N)c(C(=O)NCc2ccc(F)cc2)cc2c(=O)n3cccc(C)c3nc21`, the IFI came to 3.39%.

`COc1ccc(C(=O)Nc2ccc(Nc3nc(C)cc(N(C)C)n3)cc2)c(OC)c1`: the IFI turned out to be 2.33%.

In turn, `O=C1CCCN1CCCNCc1ccc(-c2ccc(-c3nc4cc(C(F)(F)F)ccc4[nH]3)cc2)cc1` returned an IFI of 10.5%.

`COc1cccc(NC(=O)COc2ccc(C(=O)Nc3nc4ccccc4[nH]3)cc2)c1` had an IFI of 1.85%.

Molecule `N=C(N)NC(=O)Nc1cc(Cl)c(F)c(Cl)c1` displayed an IFI of 4.48%.

On to `Cc1ccc(C(=O)c2oc3ccc4c(C)cc(=O)oc4c3c2C)cc1`, for which the IFI worked out at 1.37%.

In turn, `Cc1[nH]c(C)c(-c2ccc(-c3ccc4c(c3)OCO4)nc2)c(=O)c1Br` gave an IFI of 0.92%.

As to `CC1CN(c2cnn(C/C=C/c3ccc(NC(=O)c4ccc(Cl)cc4)cc3)c(=O)c2Cl)CC(C)N1` (stereo not drawn), the IFI turned out to be 6.41%.

As for `COc1ccc2nccc([C@@H](O)CN3CCC(NC(=O)Cc4cccc5c(Br)cccc45)CC3)c2c1`, the IFI was found to be 2.21%.

In turn, `CC1CCN(c2nc(C(=O)Nc3ccc(F)cc3C(F)(F)F)c(C(C)C)s2)CC1` showed an IFI of 5.71%.

`CN1CCCN(Cc2ccc(-c3ccc(NS(=O)(=O)c4cccc5cccnc45)cc3)cc2)CC1` came in with an IFI of 8.26%.

Molecule `CCn1c(C)c(C)c2cc(C(=O)Nc3ccon3)ccc21` came in with an IFI of -0%.

With `COc1cccc(C(=O)NCc2cccs2)c1OCc1ccccc1`, the IFI came to 0.72%.

In turn, `Oc1ccc(Nc2nc(NCC3CCCO3)c3ccccc3n2)cc1` (stereo not drawn) yielded an IFI of 3.65%.

`COc1ccc(CC2(CO)CCN(Cc3ccc(O)c(Cl)c3)CC2)cc1` returned an IFI of 0%.

As to `Cc1[nH]cnc1CSCCN/C(=N\C#N)NCCCCCCCCN/C(=N/C#N)NCCSCc1nc[nH]c1C`, the IFI is 1.49%.

`CC(C)(CNCc1ccc(Cl)cc1)c1nc(-c2ccc(Cl)c(O)c2)c(-c2ccncc2)[nH]1` displayed an IFI of 7.09%.

As for `CNCCNCc1ccc(-c2ccc(-c3nc4cc(C(F)(F)F)ccc4[nH]3)cc2)cc1`, the IFI stood at 9%.

Molecule `CC(=O)Nc1ccc(C(=O)Nc2cccc(-c3cccc(-c4nc5cc(C(F)(F)F)ccc5[nH]4)c3)c2)cn1` yielded an IFI of 3.7%.

`COc1ccc(CCN(C)CCc2ccc(NC(=O)c3cccc4c(=O)c5ccccc5sc34)cc2)cc1` registered an IFI of 6.45%.

With `CCC(C)(C)NC(=O)C(c1cccc(OC)c1)N(C(=O)CNC(=O)c1cccs1)c1ccc2c(c1)OCCO2` (stereo not drawn), the IFI was 0.69%.

With `COC(=O)[C@@H](NC(=O)[C@@H](Nc1ccc(C#N)c2ccccc12)C(C)(C)C)c1ccc(O)cc1`, the IFI was determined as 1.9%.

For the molecule `Cc1ccccc1C(O)CNc1ccnc(Nc2cccc(C#N)c2)n1` (stereo not drawn), the IFI stood at 7.69%.

`CCOC(=O)c1cccc(NC(=O)Nc2cccc(-c3ncc(OCCCN)c4c3nc(-c3nonc3N)n4CC)c2)c1`: the IFI was 16.5%.

Turning to `Nc1ncc(-c2cccc(CCN3CCOCC3)c2)cc1-c1nc2cc(Br)ccc2[nH]1`, the IFI turned out to be 7.41%.

Turning to `COc1cc2nc(N3CCN(C(=O)c4cccc(I)c4)CC3)nc(N)c2cc1OC`, the IFI came to 1.38%.

In turn, `CC1=C(C(=O)OCCOCc2ccccc2)C(c2ccccc2C(F)(F)F)C(C(=O)OCCOCc2ccccc2)=C(C)N1` showed an IFI of 3.6%.

For the molecule `Cc1ccc(CNC(=O)[C@H](CC(C)C)Nc2cc(C)nc(NCC3CCCCC3)n2)cc1`, the IFI was determined as 19.1%.

The molecule `N=c1c2c(n(Cc3ccccc3)c3c1CCC3)CCCC2` displayed an IFI of 1.45%.

`N=C(N)NCCN(Cc1ccccc1)c1ccccc1` displayed an IFI of 4.44%.

The molecule `O=C(/C=C/c1ccc(Cl)c(Cl)c1)NCCCCCN1CCC(NC(=O)Nc2cccc(Cl)c2Cl)CC1` yielded an IFI of 7.24%.

For the molecule `O=C(NCc1cccc(OC(F)(F)F)c1)c1cnc2c(c1)nc(-c1c[nH]c(-c3ccccc3)n1)n2CCc1c[nH]cn1`, the IFI was -0%.

On to `CS(=O)(=O)Nc1ccc(-c2ccc3ccnc(N)c3c2)cc1`, for which the IFI amounted to 8.99%.

Molecule `O=C(NCC1CCC(C(=O)NC2CCCc3ccccc32)CC1)c1ccc(O)c(-c2cccc([N+](=O)[O-])c2)c1` (stereo not drawn) returned an IFI of -0%.

For the molecule `O=C(Nc1cccc(-c2ccc(CN3CCCC3)cc2)c1)c1ccc(F)cc1`, the IFI amounted to 5.83%.

Molecule `Cc1cccc2nc(-c3ccc(-c4cccc(CNCC5CCCO5)c4)s3)[nH]c12` (stereo not drawn) came in with an IFI of 5%.

On to `Oc1ccc2[nH]c(-c3ccc(F)cc3F)nc2c1CN1CCC(O)(c2ccccc2)CC1`, for which the IFI is 3.77%.

`O=C(Cc1ccc(Cl)cc1)NC1CCN(c2ccnc3cc(Cl)ccc23)C1` (stereo not drawn) returned an IFI of 3.13%.

Consider `O=C(/C=C/c1ccc(Cl)c(Cl)c1)NCCCCCN1CCC(NC(=O)Nc2ccc(F)c(Cl)c2)CC1`, for which the IFI was found to be 12.4%.

In the case of `Cc1ccc(-n2ncc(C(=O)Nc3cc(Cl)cc(Cl)c3)c2C2CCNCC2)cc1C`, the IFI came out at 8.74%.

In turn, `CC(C)(C)C(Cn1ccnc1)NCc1c[nH]nc1-c1ccc(-c2ccccc2)cc1` (stereo not drawn) came in with an IFI of -0%.

`N#Cc1ccc(N/C(=N\c2ccccc2Cl)NC2CCN(Cc3ccccc3)CC2)c(O)c1` showed an IFI of 1.47%.

For the molecule `COc1cccc(C(=O)C2CC2CN(C)CCC(O)c2ccc(Cl)c(Cl)c2)c1` (stereo not drawn), the IFI came to 3.6%.

Take `COc1ccc(Nc2ncc3c(-c4cccc(NC(=O)Cc5ccc(O)cc5)c4)c[nH]c3n2)cc1OC`: the IFI was found to be 5.11%.

For the molecule `Fc1cccc(COc2ccc(Nc3ncnc4sc(C#C[C@H]5CCCN5)cc34)cc2F)c1`, the IFI was 10.1%.

Consider `CNc1ccc(CNCc2cccc(-c3ccc(-c4nc5ccccc5[nH]4)cc3)c2)cc1`, for which the IFI worked out at 9%.

Molecule `O=C(/C=C/c1ccc(Cl)c(Cl)c1)NC1CCN(Cc2ccc(O)cc2)C1` (stereo not drawn) showed an IFI of 3.47%.

On to `COc1cc2ncnc(Nc3ccc(OCc4ccccc4)c(I)c3)c2cc1OC`, for which the IFI was 2.34%.

The values above are taken from ChEMBL document CHEMBL1157539, “Thousands of chemical starting points for antimalarial lead identification” (Nature, 2010).
